The source of these data is PubChem BioAssay AID1625 (Sanford-Burnham Center for Chemical Genomics, 2009).

The other results are listed elsewhere or left out. Shown are side measurements of this screen, not its main read-out; they come without a call. Compounds called inactive in the main read-out are mostly missing here.

The nature of this assay: up-regulation of insulin promoter-GFP reporter – imaging, high-content screening, mouse beta cells (AID 1625).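 Also: total cells summed across four imaged fields per well.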 The settings on record: MIN6 insulin promoter-GFP reporter, measured here: cytotoxicity, nuclei count, at 5 µM.
`CCOC(=O)c1[nH]c2ccc(OCC)cc2c1NC(=O)CN1CCCC(C)C1` (stereo not drawn) displayed a cell count of 432 cells.
With `Cc1oc(C)c2c(=O)ccc3c(c12)OC(N)=C(C#N)C3c1ccccc1` (stereo not drawn) the figure was 1580 cells.
`COc1cccc(F)c1C(C[N+](=O)[O-])c1c(N)n(C)c(=O)n(C)c1=O` (stereo not drawn) showed a cell count of 291 cells.
The same measure for `CC[n+]1c(C)n(-c2ccccc2)c2ccc(NC(C)=O)cc21`: 223 cells; for `CCN(CC)S(=O)(=O)c1ccc(/C=C/C(=O)Nc2ccc(F)c(F)c2F)cc1`: 441 cells.
Compound `COc1ccc(N/N=C(/N=Nc2nc(C)cc(=O)[nH]2)c2ccccc2)cc1` displayed a cell count of 291 cells.
On to `CN1CCS/C1=C/C=C1/SC(=S)N(Cc2ccccc2)C1=O`, for which the cell count came to 1200 cells.
In turn, `Cc1ccc(NC(=O)COC(=O)c2csc3c2CCC(C)C3)cc1S(=O)(=O)N1CCCCC1` (stereo not drawn) had a cell count of 340 cells.
With `COc1cc(C(=O)Oc2cccc(Nc3ncnc4ccccc34)c2)cc(OC)c1OC` the figure was 420 cells; with `O=C(/C=C/c1ccco1)NC(=S)Nc1ccccc1N1CCCC1`, 1430 cells.
The same measure for `CN1CCN(C2=CC3=CC(=C(C#N)C#N)CCC3CC2)CC1` (stereo not drawn): 958 cells; for `N#CC1CC(c2ccc([N+](=O)[O-])cc2)=NN1c1ccc([N+](=O)[O-])cc1` (stereo not drawn): 1160 cells.
The same measure for `COC(=O)Cc1c(C)nc2nc(NCc3ccccc3OC)[nH]n2c1=O`: 1690 cells; for `CCN1/C(=C/C=C/c2oc3ccc(-c4ccccc4)cc3[n+]2CC)Oc2ccc(-c3ccccc3)cc21`: 309 cells.
`O=C(c1ccc(CSc2nc3ccncc3[nH]2)cc1)N1CCN(c2cccc(Cl)c2)CC1`: the cell count stood at 480 cells.
The same measure for `C/C(=N\Nc1ccc([N+](=O)[O-])cc1)c1cc2ccccc2o1`: 1530 cells; for `COc1ccc(OC)c(S(=O)(=O)Nc2ccc(Oc3ccccc3)cc2)c1`: 447 cells.
With `CC[n+]1c(/C=C/Nc2ccccc2)sc2ccccc21` the figure was 436 cells; with `CCOC(=O)CC1C(=O)NCCN1c1nc2c(C)cccn2c(=O)c1/C=C1\SC(=S)N(C(C)CC)C1=O` (stereo not drawn), 862 cells; with `Cc1ccccc1-n1ncc2c(SCC(=O)NCc3cccs3)ncnc21`, 1460 cells.
With `Cc1ccc(-n2c(-c3ccccc3)c[n+]3c2CCc2ccccc2-3)c(C)c1` the figure was 276 cells.
In turn, `O=C(Nc1nc2ccccc2s1)C1CCN(S(=O)(=O)c2cc([N+](=O)[O-])ccc2Cl)CC1` returned a cell count of 312 cells.
`N#C/C(=C\c1ccc(-c2ccc(C(=O)O)cc2)o1)c1nc2ccccc2[nH]1` displayed a cell count of 1480 cells.
The same measure for `CC(C)CCNC(=O)C(=O)NC1CCCC1`: 455 cells; for `c1ccc(-c2ccc(-c3nccc4ccccc34)[nH]2)cc1`: 1120 cells; for `Cc1ccc2nc(NC(=O)C3CCN(S(=O)(=O)c4cc([N+](=O)[O-])ccc4Cl)CC3)sc2c1`: 402 cells.
The same measure for `CSC1=NCCN1C(=O)c1c(F)cccc1F`: 278 cells; for `CC(=O)O[C@H]1C(=O)[C@@]2(C)[C@H]([C@H](OC(=O)c3ccccc3)[C@]3(O)C[C@H](OC(=O)[C@H](O)C(NC(=O)c4ccccc4)c4ccccc4)C(C)=C1C3(C)C)[C@]1(OC(C)=O)CO[C@@H]1C[C@@H]2O` (stereo partly drawn): 486 cells.
